# Measured values: PubChem BioAssay (EPA / NIEHS)
# Not every entry of the source has a single result; some have several. The list is limited to them. The calls were made as follows: active = hit-call score of the fitted dose curve at least 0.9, where 1 is the maximum; inactive = score below 0.9. The source may hold further records. Values that stand side by side are repeats (runs, samples, wells, individuals or studies).
# Assays:
# [1] = ATG_AP_1_CIS: Attagene CIS-FACTORIAL HepG2 Assay for human Activator Protein 1 (AP-1) (AID 2282931); conditions: HepG2 Attagene cis-factorial AP-1 reporter mRNA; actives raise or lower the signal
# Method in brief: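 HepG2 cells transiently transfected with cis-element-driven multiplex reporter units; 24 h compound exposure. Reporter mRNA quantified by RT-PCR, FAM-labelled fragments resolved by capillary electrophoresis; bidirectional fit versus DMSO baseline.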
# [2] = ATG_MRE_CIS: Attagene CIS-FACTORIAL HepG2 Assay for human Metal Responsive Element (MRE) (AID 2282954); conditions: HepG2 MRE cis-reporter transcription, Attagene multiplex; actives raise or lower the signal
# Method in brief: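 Endogenous MRE-dependent transcription read as reporter mRNA in transiently transfected human HepG2 cells at 24 h. RNA reverse-transcribed, PCR-amplified, labelled and resolved by capillary electrophoresis; gain or loss relative to DMSO.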
# [3] = ATG_NRF2_ARE_CIS: Attagene CIS-FACTORIAL HepG2 Assay for human Nuclear Factor Erythroid 2 Related Factor 2 (NFR2) response to Antioxidant Response Elements (ARE) (AID 2282992); conditions: HepG2 Attagene ARE/NRF2 reporter, transcription factor activity; actives raise or lower the signal;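 also: reporter mRNA level measured by RT-PCR and capillary electrophoresis fluorescence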
# Method in brief: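 Endogenous transcription factor activity in human liver HepG2 cells is tracked via a cis-element-driven reporter within a multiplexed set. mRNA induction is read by RT-PCR and capillary electrophoresis after 24 h, with DMSO as baseline.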
smiles,measurement,setting,value
CC(C)(C)c1ccc(O)c(O)c1,AC50,[1],"active: 59.5, 59, 74.8, 106, 16.5 µM [separate samples]"
same,AC50,[2],"active: 43.4, 30.4, 41.5, 58, 15.4 µM [separate samples]"
same,AC50,[3],"active: 17, 31.7, 36.8, 44, 12.1 µM [separate samples]"
